Results reported in PubChem BioAssay AID504332 (National Center for Advancing Translational Sciences (NCATS), 2011).
Where “and” joins values, the source holds several entries; their conditions need not be identical. Equal values may be shown once. Screen size: about 350,000 compounds; about 31,000 (8.9%) were called active. Inconclusive results, whose numbers are uncertain, are shown with a selection of clear calls. The call rests on the fitted dose curve; in most records, active means well fitted inhibition curve with a large enough effect; inconclusive means small, poorly fitted or top-dose-only effect; inactive means no such curve, though single readings can be large or run the other way. Potencies of inconclusive entries are doubtful fits and often do not repeat.

Each molecule was assayed against Histone-lysine N-methyltransferase EHMT2 (Homo sapiens) (UniProt Q96KQ7) (assay: qHTS Assay for Inhibitors of Histone Lysine Methyltransferase G9a). Details: G9a H3K9 monomethylation, AlphaScreen, 2 h; activity, negative = inhibition: at 59 µM (top of the series) unless noted.
Method in brief: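 Chemiluminescent proximity detection of H3K9 monomethylation, read after 10 min bead incubation in the dark. Reaction: 20 nM G9a, 500 nM biotin-H3K9 peptide, 20 uM SAM cofactor, 2 h, room temperature, following 15 min enzyme-compound preincubation.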
Further: nearly all actives have a fitted effect of over 75% in size.
On the % scale 0 is the no-effect control and ±100 the full control effect; potency means the concentration at half of the fitted maximal effect; tags describe the fitted curve by direction and shape.

Sequence of UniProt Q96KQ7 (Q96KQ7 whole entry, looked up): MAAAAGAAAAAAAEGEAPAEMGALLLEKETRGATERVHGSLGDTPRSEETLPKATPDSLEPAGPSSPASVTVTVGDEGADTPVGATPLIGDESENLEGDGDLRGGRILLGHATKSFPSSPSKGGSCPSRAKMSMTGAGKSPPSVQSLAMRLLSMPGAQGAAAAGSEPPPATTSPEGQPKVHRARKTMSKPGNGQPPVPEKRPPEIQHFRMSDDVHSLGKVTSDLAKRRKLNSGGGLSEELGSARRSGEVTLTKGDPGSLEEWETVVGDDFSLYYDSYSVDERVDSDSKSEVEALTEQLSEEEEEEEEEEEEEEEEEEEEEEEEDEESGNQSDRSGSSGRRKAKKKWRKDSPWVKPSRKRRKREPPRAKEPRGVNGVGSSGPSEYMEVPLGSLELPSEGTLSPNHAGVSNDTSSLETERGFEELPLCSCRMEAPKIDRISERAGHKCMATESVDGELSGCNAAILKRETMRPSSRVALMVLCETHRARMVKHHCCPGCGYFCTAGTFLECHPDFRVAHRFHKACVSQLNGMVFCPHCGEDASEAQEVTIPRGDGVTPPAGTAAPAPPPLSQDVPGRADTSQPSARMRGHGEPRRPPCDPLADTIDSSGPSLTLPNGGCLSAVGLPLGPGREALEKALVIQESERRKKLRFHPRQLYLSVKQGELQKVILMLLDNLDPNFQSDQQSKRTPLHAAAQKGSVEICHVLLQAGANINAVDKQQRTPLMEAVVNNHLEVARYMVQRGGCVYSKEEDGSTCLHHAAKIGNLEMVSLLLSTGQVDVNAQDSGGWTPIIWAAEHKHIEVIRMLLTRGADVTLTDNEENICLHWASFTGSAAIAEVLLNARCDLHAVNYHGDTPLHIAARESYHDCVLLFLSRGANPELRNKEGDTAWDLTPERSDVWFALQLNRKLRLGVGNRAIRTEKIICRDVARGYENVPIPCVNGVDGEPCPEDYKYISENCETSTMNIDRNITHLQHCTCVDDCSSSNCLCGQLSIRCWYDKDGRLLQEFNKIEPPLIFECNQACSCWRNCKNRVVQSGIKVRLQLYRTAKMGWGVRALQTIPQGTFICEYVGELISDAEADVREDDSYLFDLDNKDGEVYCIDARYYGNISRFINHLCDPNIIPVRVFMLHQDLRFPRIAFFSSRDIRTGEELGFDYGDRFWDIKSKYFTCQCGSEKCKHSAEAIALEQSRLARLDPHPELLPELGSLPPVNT

SMILES	Potency	activity, negative = inhibition
COc1ccc(C(=O)Nc2ccc3c(c2)OCCO3)cc1	inactive	
CN(C)CCCNS(=O)(=O)c1ccc(NC2CCCCCC2)c([N+](=O)[O-])c1	active: 70.8 µM	
CCOC(=O)c1c(-c2ccc(C)o2)csc1NC(=O)COC(=O)c1cccs1	active: 10 µM	
Cc1cc(C)c(S(=O)(=O)c2ccccc2C)c(OCCN(C)C)n1	inactive	
Cc1cc(SCC(=O)c2cc(C)n(C)c2C)nc2ccccc12	inconclusive: 35.5 µM [inhibitor, single point]	
Fc1ccc2c(c1)C(c1ccc(N3CCOCC3)cc1)=NNC(c1cccs1)=N2	active: 20 µM	
Cc1ccc(Nc2ncc(C(=O)N3CCN(c4ccc(F)cc4)CC3)c3ccccc23)cc1Cl	inconclusive: 7.08 µM [inhibitor, single point]	
CCOc1ccc(N(C(=O)c2snc(C(N)=O)c2N)C(C(=O)NCC2CCCO2)c2ccc(C)o2)cc1 (configuration not stated)	inconclusive: 56.2 µM [inhibitor, partial curve, poor fit]	
Cc1nc(NCc2ccco2)c2oc3ccccc3c2n1	inconclusive: 14.1 µM [inhibitor, partial curve, poor fit]	
CCOc1ccc2nc(NC(=O)CSc3nc(-c4ccccc4)c(C#N)c(=O)[nH]3)sc2c1	inconclusive: 56.2 µM [inhibitor, partial curve, poor fit]	
CCOC(=O)c1ccc(N2C(=O)c3n[nH]c(C)c3C2c2ccccc2OC)cc1 (configuration not stated)	inconclusive: 28.2 µM [inhibitor, partial curve, poor fit]	
CCc1ccc2oc(C(=O)Nc3c(C)n(C)n(-c4ccccc4)c3=O)cc(=O)c2c1	inconclusive: 0.282 µM [inhibitor, partial curve, poor fit]	
O=C(CN1CCN(c2nc(-c3ccccc3)cs2)CC1)NCc1ccc2c(c1)OCO2	inconclusive: 31.6 µM [inhibitor, single point]	
CN1CCN(C(=O)c2ccc(CSc3nc4ccncc4n3Cc3ccc(F)cc3)cc2)CC1	inconclusive: 89.1 µM [inhibitor, single point]	
O=S(=O)(Nc1cc(S(=O)(=O)N2CCCC2)ccc1O)c1ccc(Cl)s1	active: 56.2 µM	
COc1ccc(Nc2nnc(SCC(=O)c3cc4ccccc4o3)s2)cc1	inactive	
O=C(Cn1ccccc1=O)c1ccc(Cl)cc1	inconclusive: 50.1 µM [inhibitor, partial curve]	
NC(=O)c1cccc([N+](=O)[O-])c1		inactive: -0.414% [at 0.501 µM]
COC(=O)c1cc(OC)c(OC)cc1NC(=S)N1CCN(C/C=C/c2ccccc2)CC1	inconclusive: 25.1 µM [inhibitor, single point]	
COc1ccc2c(c1[N+](=O)[O-])CCC/C2=N/OC(=O)c1ccccc1SC	active: 44.7 µM	
CC(NCC(O)COc1ccc2ccccc2c1)c1ccccc1 (configuration not stated)	active: 14.1 µM	
S=C(NCCc1ccccc1)N1CCn2cccc2C1c1cccnc1 (configuration not stated)	inconclusive: 44.7 µM [inhibitor, partial curve, poor fit]	
S=C(NCCN1CCOCC1)NC1CCCC1	inconclusive: 20 µM [inhibitor, full curve]	
O=C(CSc1nc2ccsc2c(=O)n1CC1CCC(C(=O)O)CC1)c1ccc(Cl)cc1 (configuration not stated)	active: 56.2 µM	

SMILES	Potency	activity, negative = inhibition
Nc1ccc2nc(SCc3ccc([N+](=O)[O-])cc3)sc2c1	active: 39.8 µM	
Fc1ccccc1CSc1nc2ncccc2[nH]1	inconclusive: 3.16 µM [inhibitor, single point]	
COc1ccc(C(=S)N2CCN(c3ccccc3C)CC2)cc1	active: 8.91 µM	
Cn1c(=O)[nH]c(=O)c2c1nc(Sc1ncccn1)n2CCCc1ccccc1	inconclusive: 79.4 µM [inhibitor, partial curve, poor fit]	
N#Cc1ccccc1-c1nc(NCCN2CCOCC2)c2ccccc2n1		inactive: 7.58% [at 0.501 µM]
CC1(C)NC(C)(C)C(O)(C(N)=O)C1=O (configuration not stated)		inconclusive: -58.5% [inhibitor] [at 0.0925 µM]
CCc1cccc(C)c1NC(=O)COC(=O)CNS(=O)(=O)/C=C/c1ccccc1	inconclusive: 89.1 µM [inhibitor, single point]	
CCn1c(C(=O)NCc2ccc(OC(C)C)cc2)cc2oc3ccccc3c21	inactive	
COc1ccc(CCN2C(=O)CC(NC34CC5CC(CC(C5)C3)C4)C2=O)cc1OC (configuration not stated)	inconclusive: 70.8 µM [inhibitor, single point]	
Cc1cc2cc(CCNC(=O)c3ccc(Br)o3)c(=O)[nH]c2cc1C	active: 17.8 µM	
Cn1nccc1NC(=O)c1nccnc1C(=O)O	active: 39.8 µM	
Cc1ccccc1OCC(=O)Nc1sc2c(c1C(=O)OC(C)C)CCCC2	inconclusive: 31.6 µM [inhibitor, single point]	
COc1cc(C2NC(=S)NC(C)=C2C(=O)Nc2cc(C)cc(C)c2)ccc1O (configuration not stated)	inconclusive: 44.7 µM [inhibitor, partial curve, poor fit]	
Cc1ccc(C)c(N2CCN(c3ccc4cc(S(=O)(=O)N5CCC(C)CC5)ccc4n3)CC2)c1	inconclusive: 7.94 µM [inhibitor, full curve, poor fit]	
c1csc(-c2nc3ccccc3[nH]2)c1	inconclusive: 7.08 µM [inhibitor, single point]	
Cn1c(C(=O)c2ccncc2)cc2ccccc21	inactive	
Cc1ccc(C)c(N2CCN(C(=O)c3cc(C)nc4c3c(C)nn4-c3cccc(F)c3)CC2)c1	inactive	
O=S(=O)(c1ccccc1)N(F)S(=O)(=O)c1ccccc1		inactive: -8.86% [at 2.33 µM]
CNC(=O)COc1ccc(S(=O)(=O)Nc2ccccc2)cc1	active: 50.1 µM	
CCN1CCN(c2nc3ccccc3nc2C(C#N)C(=O)OCc2ccccc2)CC1 (configuration not stated)	active: 39.8 µM	
CCCS(=O)(=O)C/C(N)=N/OC(=O)c1ccccc1Cl	active: 39.8 µM	
CCOC(=O)COc1ccc2c(C)cc(=O)oc2c1C(=O)c1ccccc1	inactive	
COC(=O)c1ccc(C2c3c(oc4ccccc4c3=O)C(=O)N2c2nc(C)c(C(=O)OC)s2)cc1 (configuration not stated)	inconclusive: 31.6 µM [inhibitor, single point]	
CC(C)N(CCNCC(O)COc1ccc(C(C)(C)c2ccccc2)cc1)C(C)C (configuration not stated)	active: 20 µM	

SMILES	Potency	activity, negative = inhibition
Cc1nn(CC(=O)O)c(=O)c2cc3cc(F)ccc3n12	inactive	
O=C(/C=C/c1ccco1)Nc1ccc2c(c1)OCCO2	inconclusive: 50.1 µM [inhibitor, partial curve]	
COc1ccc(Cn2c(SCc3ccccc3C)nc3cc(OC)c(OC)cc3c2=N)cc1	active: 39.8 µM	
CC(OC(=O)c1cc(=O)[nH]c2ccccc12)C(=O)N1C(C)CCCC1C (configuration not stated)		inactive: 24.5% [at 2.33 µM]
CCC(C)[C@H](N)c1cn([C@@H](Cc2cc3ccccc3[nH]2)C(=O)N2CCNCC2)nn1 (some centres not stated)		inconclusive: -70.1% [inhibitor]
Cc1ccc(S(=O)(=O)Nc2ccc(N3CCOCC3)cc2)cc1C	active: 44.7 µM	
COC(=O)c1c(NC(=O)Cn2cnc([N+](=O)[O-])n2)sc2c1CCC(C)C2 (configuration not stated)	active: 8.91 µM	
CCn1c(CC(=O)Nc2cccc(OC)c2)nnc1SCC(=O)Nc1nccs1	active: 56.2 µM	
COc1ccc(-c2csc(N(CCc3ccc(OC)c(OC)c3)C(=O)COc3ccccc3)n2)cc1	inconclusive: 10 µM [inhibitor, partial curve, poor fit]	
COC(=O)[C@@H](NC(=O)/C=C/c1ccc(OC)cc1)C(C)C	inactive	
O=C(N/N=C/C(Cl)=C/c1ccc([N+](=O)[O-])cc1)C(=O)Nc1ccc(C(=O)O)cc1	active: 50.1 µM	
Cc1ccc(N2CCN(S(=O)(=O)c3cc(C(=O)Nc4cc(Cl)cc(Cl)c4)ccc3F)CC2C)cc1 (configuration not stated)	inconclusive: 39.8 µM [inhibitor, single point]	
CCC1CCC(N2CCN(c3ccc(F)cc3)CC2)CC1 (configuration not stated)	active: 44.7 µM	
CC(=O)Nc1nonc1-c1nnc(SCC(=O)Nc2cccc(F)c2)n1-c1ccccc1	inactive	
Cc1cc(C(C)(C)C)cc(S(=O)(=O)Nc2ccc(C(=O)O)cc2)c1C	inactive	
CC1CCCC(C)N1C(=C(Cl)Cl)C(=C1SCCS1)[N+](=O)[O-] (configuration not stated)	active: 35.5 µM	
COc1ccc(Cc2n[nH]c(=S)n(N)c2=O)cc1		inconclusive: -85.8% [inhibitor] [at 12.7 µM]
CCCc1cc(C(=O)Nc2sc3c(c2C(=O)OCC)CCCC3)no1	inactive	
O=C(c1ccco1)N1N=C(c2ccc3nccnc3c2)CC1c1ccccc1 (configuration not stated)	inconclusive: 50.1 µM [inhibitor, partial curve, poor fit]	
C=CCOc1cccc(C2/C(=C(/O)c3ccc4c(c3)CC(C)O4)C(=O)C(=O)N2CCN2CCOCC2)c1 (configuration not stated)	active: 50.1 µM	
O=C1Nc2ccc(S(=O)(=O)NCc3ccccn3)c3cccc1c23	inactive	
O=C(c1cc([N+](=O)[O-])ccc1Cl)N1CCN(c2ccc([N+](=O)[O-])cc2)CC1	inconclusive: 10 µM [inhibitor, partial curve, poor fit]	
COc1ccc2oc(C(=O)OCC(=O)N(C)C3CCS(=O)(=O)C3)c(C)c2c1 (configuration not stated)	inconclusive: 79.4 µM [inhibitor, single point]	
CNc1c2c(nn1C)CCCC2	inconclusive: 89.1 µM [inhibitor, single point] and inconclusive: 79.4 µM [inhibitor, single point]	
